# From the supplement of paper PMC11417369
# ± gives the standard deviation of the averaged measurements. Some of the results follow.
# Test system: PfAP2-G AP2 domain (GST-tagged)
# Experiment: gcPBM binding intensity (ln(normalized median fluorescence intensity)); higher = stronger DNA binding
# Procedure, shortened: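 An Agilent 4 × 180k array carrying primer-extended double-stranded 36-bp intergenic genomic probes and negative controls received GST-tagged P. falciparum DNA-binding domains expressed in E. coli, about 25 μg on average, for 1 h. The binding buffer contained 1× PBS, 1% milk, 0.2 mg/ml BSA, 0.5% salmon testes DNA and 0.03% Triton X-100. Binding intensity is the top Masliner-normalised natural-log median intensity across replicate spots of either probe orientation, read after Alexa488 anti-GST antibody staining and a 488 nm scan.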
row,Sequence,gcPBM binding intensity (ln)
1,CTAAAAATCTTTTGTTGTACTTTTAGATAATCAGGA [XGTACX_site3968],11.5 ± 0.98
2,TACATATTTATATACACACACACCGTCCGTGTTAAA [CACACA_site7413],10.2 ± 0.14
3,AATGGTTTAAAATACTGTACATATATATAAAAGTAA [XGTACX_site6187],11.2 ± 0.83
4,TTCCTAATTGACAACACACACAACAAAAAAGGGATT [CACACA_site1279],10.3 ± 0.27
5,TTTTTTTAAATATACACACACATTTATACCTATATA [CACACA_site7572],10.2 ± 0.28
6,TATATATATATAGACACACACACACCCATATATATA [CACACA_site4117],10.2 ± 0.3
7,TATAACTATAAAAGTAGTACACATATATATTATATA [XGTACX_site1391],11.5 ± 1
8,CTTGTCATTTTGCACACACACATGTATAGGTTATTA [CACACA_site7431],10.4 ± 0.33
9,TATATTTATATGATAACACACATAAATTATACATTT [CACACA_site1671],9.86 ± 0.13
10,TTAATTTTATTTTTTTGTACACATAAATATTATAAA [XGTACX_site4680],11.4 ± 0.91
11,CACTAAAATAAACACACACACACACCGATATATATA [CACACA_site9379],10.2 ± 0.31
12,TATGTATATAAATTAACACACATATGTGGTTAATAG [CACACA_site3143],9.89 ± 0.057
13,AGTCTGAATAAAATTACACACATATACATATATATA [CACACA_site1780],9.755 ± 0.092
14,AAAAAAAAAAAAAAAACACACAATAAAGTAAAATTT [CACACA_site135],10.15 ± 0.049
15,ATATATAAATTTTAGTGTACATTAATTTTTTTTTTT [XGTACX_site7782],11.5 ± 0.7
16,TAAATATATTAAGCTTGTACATGAAAAAAAAAAAAA [XGTACX_site3264],10.7 ± 0.7
17,TAAAAAAAAAAAAAAGCATGCTATATTATATTACAC [TGCATGCA_site241],9.64 ± 0.057
18,TTTTTTTTTCCGTGTTGTACAAAAAAAAAGATTTTG [XGTACX_site3925],11.1 ± 0.74
19,AAGAAATATTTATACACACACACAAACATATAAATA [CACACA_site6981],10.14 ± 0.057
20,TATAACTATTCACAGACATGCACATAATAACAATAA [TGCATGCA_site207],10.07 ± 0.099
21,TACCTTTTTTGTTTTATGCACACCATATAACCAAGG [CACACA_site30],10.4 ± 0.32
22,GTACAAAAATAAATTGCACACATTTTAATAAAAAAA [CACACA_site2130],10.7 ± 0.19
23,CAAAATTGACATGACGCACACAAGTGTAGATATTTT [CACACA_site1250],10.31 ± 0.064

row,Sequence,gcPBM binding intensity (ln)
1,TAGTTGTTTATAACACGTTGACAGAAATGTTATGTA [GTGCAC_negctrl_site624],10.1 ± 0.11
2,TATATTTATTTATATACACACATATTTATAAATATA [CACACA_site7047],10.1 ± 0.17
3,AGATTTAAATATCATACACACTTTATCTATAATACA [CACACA_site6581],9.86
4,AAGCATTTCCATGGTGGTACTATACAAATAATAATT [XGTACX_site6193],11 ± 0.66
5,TATAAATAATGTTAAACACACATACCGATATATAAC [CACACA_site7306],9.99 ± 0.085
6,CGAACATTATAAATGTCATTTTTTCCAACTTGATCT [GTGCAC_negctrl_site501],9.75 ± 0.28
7,TCTCTCTTATAAAATACACACGAACAATCATATTAT [CACACA_site8065],10.14 ± 0.092
8,ATTTTTTTTTTTAAATGTACATAATATATATATAAT [XGTACX_site2686],11.1 ± 0.74
9,AAAAAAATTTGTATCACACACGTATTATAAAAAAAT [CACACA_site4182],10.4 ± 0.24
10,TATTAAACTAAATGTAGTACATACACAAACGTAATC [XGTACX_site4905],11.5 ± 0.97
11,TATTCGTGCAATAATGGTACACTTATAAATTATTCA [XGTACX_site1430],11.1 ± 0.63
12,TATATAATATATTAATGTACGTTATATGTATTCCTT [XGTACX_site6140],11.2 ± 0.81
13,CTTTTTTTTTAAATATCACACACATATAATATATTC [CACACA_site9222],9.875 ± 0.049
14,TAATTCATCATATGCACACACAATACCAAAATGTGC [CACACA_site191],10.2 ± 0.15
15,TACAGATATTCATATAAACACACATACAAATTATGT [CACACA_site7929],9.89 ± 0.11
16,AGTGTATTTTTATGTTGTACATGTAATATTTTTGAT [XGTACX_site541],11.3 ± 0.75
17,TATGTGGCACAAAAGGGTACATATAATTTATACAGG [XGTACX_site5499],11.3 ± 0.52
18,TTTCTAAACCGGTACAGTACATATAAAAATAGAATA [XGTACX_site6662],11.4 ± 0.91
19,AAAGGACAAAAAAATGCATGCCGTTAAATTATGTAC [TGCATGCA_site512],10.7 ± 0.27
20,AAACAGAATGCATATACACACATACAAAAAAGTGCA [CACACA_site6591],10.2 ± 0.2
21,TGTGTACCGATATTAAGTTTAACGTTATAAAAATAT [CACACA_negctrl_site1547],11.2 ± 0.94
22,TGAACATGTTAAAATAAACACACAGCTAAGGTTTTT [CACACA_site7934],9.8 ± 0.042
